Hit rate of the full screen: of about 43,000 compounds, about 200 (0.47%) were called active. Roughly 12% stayed inconclusive and do not appear here. The call rests on the fitted dose curve; in most records, active means well fitted cell-killing curve with a large enough effect; inconclusive means small, poorly fitted or top-dose-only effect, or effect the other way; inactive means flat fitted curve, though single readings scatter. The list shows a part of the results.
On the % scale 0 is the no-effect control and ±100 the full control effect.

The nature of the test: Cell viability qHTS assay in S16 Pmp22-F2sN cells. Further: nearly all actives have a fitted effect of over 65% in size. The following applies: S16 Pmp22-F2sN Schwann cells viability, CellTiter-Glo, 24 h; series mostly up to 57.5 µM; activity change, negative = cytotoxicity: at the top concentration. The essentials: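 S16 Pmp22-F2sN Schwann cells (500-1,000/well) in phenol-red-free DMEM with 10% FBS received 23 nL compound by pin tool for 24 h at 37 °C. Viability was then read as CellTiter-Glo luminescence after 15 min at room temperature.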
In general terms: In qHTS, concentration-response curves come from the screen itself.
On to `Cc1nnc2c3ccccc3nc(N3CCN(c4cccc(Cl)c4)CC3)n12`, for which the “activity change, negative = cytotoxicity” value was inactive: -12%.
Consider `CCOCCCn1c(=N)c(C(=O)NC2CCCC2)cc2c(=O)n3cccc(C)c3nc21`, for which the “activity change, negative = cytotoxicity” value is inactive: -3.32%.
For the compound `Cc1cccc(-n2ncc3c(Nc4c(C)cc(C)cc4C)ncnc32)c1`, the “activity change, negative = cytotoxicity” value was inactive: -18%.
On to `Cc1noc(Cn2c(=O)c3ccccc3n(CC(=O)Nc3ccccc3C(F)(F)F)c2=O)n1`, for which the “activity change, negative = cytotoxicity” value is inactive: 2.8%.
On to `CCOC(=O)c1cccc(Nc2cc(C)nc(C)n2)c1`, for which the “activity change, negative = cytotoxicity” value was inactive: 0.756%.
As for `COc1ccccc1CNC(=O)CN1C(=O)CCCc2ccccc21`, the “activity change, negative = cytotoxicity” value is inactive: -4.34%.
Regarding `CCc1ccc(NC(=O)c2oc3c(c2C)-c2[nH]ncc2CC3)cc1`, the “activity change, negative = cytotoxicity” value is inactive: -7.04%.
Turning to `CCc1ccc(NC(=O)c2ccc3c(c2)c(C)c(C)n3Cc2ccccc2)cc1`, the “activity change, negative = cytotoxicity” value is inactive: -8.07%.
On to `CCCCOc1ccc(C2c3c(oc4ccccc4c3=O)C(=O)N2c2nc(C)c(C(=O)OCC)s2)cc1OC` (stereo unspecified), for which the “activity change, negative = cytotoxicity” value was inactive: -8.86%.
In the case of `Cn1c(C(=O)N2CCC(C(=O)NCCc3ccc(S(N)(=O)=O)cc3)CC2)cc2sccc21` it was inactive: -8.78%.
For the compound `CCOC(=O)c1ccc(NC(=O)c2cc3c(n(-c4ccc(C)cc4)c2=O)CC(C)(C)CC3=O)cc1`, the “activity change, negative = cytotoxicity” value is inactive: -2.22%.
Next, `COc1ccc(-c2nc3scc(CCNS(=O)(=O)c4cccc(C(C)=O)c4)n3n2)cc1`: inactive: -5.47%; `CCOC(=O)c1cccc(NC(=O)CCNS(=O)(=O)c2cccc3nonc23)c1`: inactive: 27.1%.
For `O=C(CSc1nc2c(oc3ccccc32)c(=O)[nH]1)Nc1cccc(Cl)c1`, the “activity change, negative = cytotoxicity” value is inactive: -8.22%.
Next, `CC1=C(c2ccc(Cl)cc2)S(=O)(=O)NC1=NCc1ccc(C)cc1`: inactive: 17.9%.
In the case of `CN(C)c1cccc(C(=O)Nc2ccc(-c3nc4ccccc4s3)cc2)c1` it was inactive: -2.49%.
Next, `CC12CN3CC(C)(CN(C1)C3c1ccc(OCc3ccccc3)cc1)C2=O` (stereo unspecified): inactive: 9.55%.
Turning to `Cc1ccc(NC(=O)CSc2nnc(C)c(=O)[nH]2)cc1`, the “activity change, negative = cytotoxicity” value is inactive: -3.75%.
Consider `CCc1ccc(NC(=O)Cn2c(=O)ccc3cc(S(=O)(=O)N4CCCC4)ccc32)cc1`, for which the “activity change, negative = cytotoxicity” value was inactive: 6.94%.
On to `Cc1cc(C)c(S(=O)(=O)Nc2cccc(-c3cn4ccccc4n3)c2)c(C)c1`, for which the “activity change, negative = cytotoxicity” value was inactive: -19.9%.
In the case of `Cc1ccc(NC(=O)Cn2c(=O)n(CCc3ccccc3)c(=O)c3c4c(sc32)CCCC4)cc1C`, the “activity change, negative = cytotoxicity” value was inactive: 10.9%.
On to `Cc1ccc(C)c(CN2C(=O)c3ccccc3S(=O)c3ccc(C(=O)NCc4ccco4)cc32)c1` (stereo unspecified), for which the “activity change, negative = cytotoxicity” value was inactive: -1.86%.
Next, `COc1ccc(Cn2ccc3nc(C)c(C(=O)Nc4ccc(OC)cc4OC)cc3c2=O)cc1`: inactive: 7.59%; `COc1cccc(NC(=O)c2ccc(CNS(=O)(=O)c3ccc4c(c3)C(C)(C)C(=O)N4C)cc2)c1`: inactive: -20.6%; `O=C(/C=C/c1ccco1)Nc1ccc(Cl)c(-c2nc3cc(Cl)ccc3o2)c1`: inactive: -21.1%.
As to `Cc1c(Cl)cccc1NC(=O)CSc1cc(-c2ccccc2)ncn1`, the “activity change, negative = cytotoxicity” value was inactive: 20.3%.
Turning to `Cc1ccc(NC(=O)C2CCN(c3nn4c(=O)cc(C)nc4s3)CC2)cc1`, the “activity change, negative = cytotoxicity” value was inactive: 2.97%.
`CC(C)n1c(=O)c2oc3ccccc3c2n(Cc2ccccc2F)c1=O`: the “activity change, negative = cytotoxicity” value was inactive: 1.19%.
As for `Cc1cc2ccccc2n1-c1ccc(C(=O)N2CCC(C(=O)NCc3ccc(F)cc3)CC2)s1`, the “activity change, negative = cytotoxicity” value is inactive: -16.6%.
In the case of `COc1ccc(CNC(=O)Cn2ccc3cc(S(=O)(=O)N4CCCCCC4)ccc32)c(OC)c1` it was inactive: -16.5%; in that of `Cc1ccc(N2CC(NC(=O)/C=C\c3ccc4c(c3)OCO4)CC2=O)cc1` (stereo unspecified), inactive: 1.74%.
For `O=C(C1CC1)N1CCc2cc(Br)cc(S(=O)(=O)N3CCN(c4ccccc4F)CC3)c21`, the “activity change, negative = cytotoxicity” value is inactive: 9.96%.
`O=C(Cc1csc2nc(-c3ccccc3)cn12)NCc1ccc(F)cc1`: the “activity change, negative = cytotoxicity” value was inactive: 13.4%.
Turning to `CCOc1ccccc1NC(=O)N1CCCn2nc(C)cc21`, the “activity change, negative = cytotoxicity” value was inactive: 2.94%.
Consider `O=C(NCC(c1cccs1)S(=O)(=O)c1cccs1)c1ccc(C(F)(F)F)cc1` (stereo unspecified), for which the “activity change, negative = cytotoxicity” value was inactive: 10.8%.
With `COc1ccc(CCCc2nnc(SCC(=O)Nc3ccccc3F)o2)cc1C`, the “activity change, negative = cytotoxicity” value is inactive: 6.34%.
On to `COc1cccc(N(Cc2nnc3n2CCCCC3)C(=O)Nc2cccc(Cl)c2)c1`, for which the “activity change, negative = cytotoxicity” value is inactive: 1.62%.
On to `CCOCCCNC(=O)CN1C(=O)c2c(c3ccccc3n2C)C1c1ccc(OC)cc1` (stereo unspecified), for which the “activity change, negative = cytotoxicity” value is inactive: -0.689%.
Next, `COc1ccc(N(C(=O)COc2ccc(Br)cc2)S(=O)(=O)c2ccc(C)cc2)cc1`: inactive: 0.49%; `CCOC(=O)c1c(S(=O)(=O)N2CCCC(C(=O)Nc3ncccc3C)C2)c(C)n(C)c1C` (stereo unspecified): inactive: -0.94%.
Turning to `O=C(OCc1ccccc1Cl)c1ccc(-c2nnn(Cc3ccccc3Cl)n2)cc1`, the “activity change, negative = cytotoxicity” value was inactive: -5.07%.
Turning to `CCOc1ccc(CNC(=O)Cn2c(=O)c3cccn3c3ccc(F)cc32)cc1OC`, the “activity change, negative = cytotoxicity” value was inactive: 3.88%.
In the case of `COc1cc(/C=C/c2nc(C#N)c(NC(C)c3ccccc3)o2)cc(OC)c1OC` (stereo unspecified) it was inactive: -29.9%; in that of `CCOC(=O)CCN(c1ccccc1)S(=O)(=O)c1ccc2[nH]c(=O)ccc2c1`, inactive: 5.69%; in that of `CCc1ccc(Oc2nc3c(C)cccn3c(=O)c2/C=C(\C#N)c2nc3ccccc3s2)cc1`, inactive: -32.9%.
Turning to `O=C(c1ccc(Cl)cc1)n1nc(-c2ccco2)nc1NCc1cccs1`, the “activity change, negative = cytotoxicity” value was inactive: -0.573%.
Regarding `Cc1ccc(CNC(=O)Cn2c(=O)n(-c3ccccc3)c(=O)c3c2c2cc(C)ccc2n3C)cc1`, the “activity change, negative = cytotoxicity” value was inactive: 2.61%.
With `CCCCN(C)CCNC(=O)Cn1ncc2c([nH]c3ccccc32)c1=O`, the “activity change, negative = cytotoxicity” value was inactive: -3.49%.
As to `Cc1ccc(NC(=O)CCSc2nc(-c3ccc4c(c3)OCO4)cc(C(F)(F)F)n2)cc1`, the “activity change, negative = cytotoxicity” value is inactive: -3.07%.
In the case of `CCOC(=O)c1c(NC(=O)c2cc(=O)c3c(C)cc(C)cc3o2)sc2c1CCC2`, the “activity change, negative = cytotoxicity” value was inactive: 13.5%.
In the case of `COc1ccc(-c2cc(C(=O)OCC(=O)c3cccc(OC)c3)c3cccc(Cl)c3n2)cc1` it was inactive: 0.797%; in that of `COc1ccc(NC(=O)C2CCN(c3nc(-c4ccc(OC)c(OC)c4)no3)CC2)cc1Cl`, inactive: 0.548%.
Take `COc1ccccc1N(C)C(=O)Cn1c(=O)oc2cc(S(=O)(=O)N3CCCC3)ccc21`: the “activity change, negative = cytotoxicity” value is inactive: -6.21%.
For `COc1ccc(CCC(=O)NCc2nc3cccnc3n2Cc2ccc(OC)cc2)cc1`, the “activity change, negative = cytotoxicity” value was inactive: 10.7%.
Regarding `CCOC(=O)c1c(NC(=O)CS(=O)(=O)c2ccc(Cl)cc2)sc2c1CCCC2`, the “activity change, negative = cytotoxicity” value is inactive: 1.78%.
On to `CNC(=O)C1CCN(C(=O)N2CC(C)Oc3ccc(C)cc32)CC1` (stereo unspecified), for which the “activity change, negative = cytotoxicity” value was inactive: 8.51%.
As for `CCOC(=O)c1c(C)oc2ncnc(N3CCN(c4cccc(Cl)c4)CC3)c12`, the “activity change, negative = cytotoxicity” value was inactive: -4.81%.
As to `CCOC(=O)c1c(C)[nH]c(C)c1S(=O)(=O)N1CCN(c2ccccc2OC)CC1`, the “activity change, negative = cytotoxicity” value is inactive: -12%.
As for `COc1ccc(Cl)cc1NC(=O)CSc1nc2ccccc2nc1N1CCCCC1`, the “activity change, negative = cytotoxicity” value is inactive: 8.38%.
Regarding `CC1=C(C(=O)Nc2ccccc2)C(c2ccccc2Cl)n2ncc(C(=O)Nc3cccc(C)c3)c2N1` (stereo unspecified), the “activity change, negative = cytotoxicity” value is inactive: -15%.
For `Cn1cc(S(=O)(=O)N2CCCCCC2)cc1C(=O)N1CCN(c2ccc(Cl)cc2)CC1`, the “activity change, negative = cytotoxicity” value is inactive: -1.66%.

The values above are taken from PubChem BioAssay AID1508642 (National Center for Advancing Translational Sciences (NCATS), 2021).
